# Test results as given in PubChem BioAssay AID1508642 (National Center for Advancing Translational Sciences (NCATS), 2021).
# About 200 (0.47%) of roughly 43,000 compounds were called active. Another 12% or so got no clear call; they are omitted. Calls follow the shape of the dose curve; as a rule, active = well fitted cell-killing curve with a large enough effect; inconclusive = small, poorly fitted or top-dose-only effect, or effect the other way; inactive = flat fitted curve, though single readings scatter. Some of the results follow.
# Assay: Cell viability qHTS assay in S16 Pmp22-F2sN cells; also: nearly all actives have a fitted effect of over 65% in size
# Conditions: S16 Pmp22-F2sN Schwann cells (luciferase reporters placed in the Pmp22 gene) viability, CellTiter-Glo, 24 h; series mostly up to 57.5 µM; activity change, negative = cytotoxicity: at the top concentration
# Outline: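 Seed 500-1,000 S16 Pmp22-F2sN cells per well in phenol-red-free DMEM with 10% heat-inactivated FBS; pin-add 23 nL compound; incubate 24 h at 37C; add CellTiter-Glo, wait 15 min protected from light; read luminescence.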
# % is scaled to controls: 0 for no effect and ±100 for the full control effect.
row,SMILES,"activity change, negative = cytotoxicity"
1,CC(C)c1cnc2c(c1SCC(=O)O)c(=O)n(C)c(=O)n2C,inactive: 3.48%
2,COc1cccc(-c2nc(SCc3ccc(C)cc3)n3[nH]c(=O)cc3n2)c1,inactive: 18.9%
3,O=[N+]([O-])c1ccc(S(=O)(=O)N2CCn3cccc3C2c2ccccc2F)cc1 (stereo unspecified),inactive: -1.97%
4,CC(NC(=O)C1CCN(S(=O)(=O)c2ccc3c(c2)oc(=O)n3C)CC1)c1ccccc1 (stereo unspecified),inactive: -13.5%
5,CCOC(=O)c1c(C)oc2ncnc(N3CCN(c4ccccc4)CC3)c12,inactive: -0.138%
6,Cc1ccc(C)c(N2CCN(c3nc4ccc(Cl)cc4n4cnnc34)CC2)c1,inactive: 5.47%
7,Cc1ccc(S(=O)(=O)NCCc2csc3nc(-c4ccccc4F)nn23)cc1C,inactive: 0.752%
8,CN(C(=O)c1c2c(nc3ccccc13)C(=O)N(C1CCCCC1)C2)c1ccc(F)cc1,inactive: -16.9%
9,Cc1ccc(-c2cc3c(n2-c2ccc(F)cc2)CC(C)(C)CC3=O)cc1,inactive: 3.21%
10,Cc1ccccc1OCc1nnc(SCc2cc(=O)c3ccc(C)c(C)c3[nH]2)n1C,inactive: -28.1%
11,COc1ccccc1-c1nc(S(=O)(=O)c2ccccc2)c(N2CCC(C)CC2)o1,inactive: -29.5%
12,COc1ccc(NC(=O)Cn2c(=O)n(Cc3ccccc3)c(=O)c3oc4ccccc4c32)cc1Cl,inactive: -14.2%
13,Cc1ccc(C)c(-n2cc(-c3ccccc3)nc2SCC(=O)Nc2ccccc2)c1,inactive: 2.32%
14,Cc1nc(N2CCCC2)ncc1C(=O)N1CCN(c2ccc(Cl)cc2)CC1,inactive: -9.03%
15,CCOC(=O)C(=O)Nc1nnc2n1CCS2,inactive: -2.71%
16,CCOc1ccc(Nc2ncnc3c2cnn3-c2ccc(F)cc2)cc1,inactive: 2.87%
17,CCOC(=O)c1ccccc1NC(=O)Cn1c(=O)n(CCCC(=O)NCc2ccc3c(c2)OCO3)c(=O)c2ccccc21,inactive: 16.8%
18,Cn1cc(S(=O)(=O)N2CCCCC2)cc1C(=O)N1CCN(c2ccccc2F)CC1,inactive: 2.38%
19,COc1cccc(-c2csc(-c3c(N)c(C(=O)c4ccccc4)n4ccccc34)n2)c1,inactive: 27.4%
20,O=C(CSc1nc2c([nH]c3ccccc32)c(=O)n1-c1ccc(Cl)cc1)N1CCCCCC1,inactive: -8.49%
21,O=C(NCCc1ccccc1)C(=O)NCC(c1ccco1)S(=O)(=O)c1ccccc1 (stereo unspecified),inactive: -3.69%
22,COCCCNC(=O)CCC(=O)NNc1nc2ccccc2c2nc(-c3ccccc3)nn12,inactive: -9.19%
23,COCCNC(=O)CSc1nc2cc3c(cc2c(=O)n1Cc1ccc(C(=O)NCCc2ccc(OC)c(OC)c2)cc1)OCO3,inactive: 1.77%
24,CCOc1ccc(NC(=O)CSc2nnc(-c3ccncc3)n2-c2ccccc2)cc1,inactive: -6.77%

row,SMILES,"activity change, negative = cytotoxicity"
1,CCc1cccc(NC(=O)CSc2ncc3c(n2)-c2ccccc2N(CC)S3(=O)=O)c1,inactive: -3.33%
2,COc1ccc(NC(=O)C(C)n2nc(-c3cc(C)ccc3C)c3c(c2=O)CCCC3)cc1 (stereo unspecified),inactive: 11.5%
3,COc1ccc(CNC(=O)c2ccc(CSc3nc4ccncc4n3Cc3ccccc3F)cc2)cc1,inactive: -24.8%
4,CC(=O)N1CCC2(CC1)OC(=O)C(C)=C2C(=O)NCc1cccc(Cl)c1,inactive: 3.42%
5,O=C(O)CCc1nnc2cnc3ccccc3n12,inactive: -0.117%
6,Cc1ccc2ncc(C(=O)NC(C)c3ccccc3)c(=O)n2c1 (stereo unspecified),inactive: -2.71%
7,Cc1ccc(C(=O)Nc2nnc(S(=O)(=O)N3CCN(c4ccc(F)cc4)CC3)s2)cc1,inactive: -1.81%
8,Cc1ccc(CNC(=O)c2cnc3c(-c4ccccc4)c(C)nn3c2C)o1,inactive: -5.22%
9,O=[N+]([O-])c1cc(-c2nc(-c3ccccn3)no2)ccc1NCc1ccccc1,inactive: 17.1%
10,Cc1ccc(N2C(=O)CS(=O)(=O)C23C(=O)N(C)c2ccccc23)cc1F (stereo unspecified),inactive: 4.05%
11,Cc1ccc(N2CCN(C(=O)c3c(C)oc4ncnc(N5CCOCC5)c34)CC2)c(C)c1,inactive: 15.2%
12,COc1cc(NC(=O)NCC2CCN(Cc3ccc(C)cc3)CC2)cc(OC)c1OC,inactive: 6.24%
13,Cc1ccc2scc(N3CCCCC3)c(=O)c2c1,inactive: -0.639%
14,COCCCNC(=O)c1cnn(-c2ccc(F)cc2F)c1C1CCNCC1,inactive: -5.37%
15,CN(Cc1ccccc1)C(=O)C1CCC(CNS(=O)(=O)c2ccc3c(c2)CCCC(=O)N3)CC1 (stereo unspecified),inactive: 8.91%
16,Cc1ccc(N2CCN(C(=O)C3CCN(c4ncnc5c4nc4n5CCCCC4)CC3)CC2)c(C)c1,inactive: -0.438%
17,Cc1ccc2nc(NC(=O)c3nc(SCc4ccccc4C)ncc3Cl)sc2c1,inactive: -4.01%
18,CCOC(=O)c1c(S(=O)(=O)NCC(=O)Nc2ccc(F)cc2C)c(C)n(C)c1C,inactive: -3.55%
19,COc1cc(OC)cc(-c2nc3nc(C)c(CCC(=O)NCCC(C)C)c(C)n3n2)c1,inactive: 12.7%
20,O=c1c(S(=O)(=O)c2cccc(Cl)c2)cn(Cc2ccccc2)c2cc(N3CCCCC3)c(F)cc12,inactive: 5.83%
21,COc1ccccc1NC(=O)CN1C(=O)CSc2ccc(S(=O)(=O)N3CCCC3)cc21,inactive: 19.9%
22,Cc1ccc(CCNC(=O)c2cn(C)c3ccc(S(=O)(=O)N4CCC(C)CC4)cc3c2=O)cc1,inactive: 10.6%
23,Cc1cc(C)c(NC(=O)CCCn2c(C)c3cnn(-c4ccccc4)c(=O)c3c2C)c(C)c1,inactive: -13.3%
24,CC(C)CC(=O)Nc1nnc(SCc2cc(=O)n3ccccc3n2)s1,inactive: 7.25%

row,SMILES,"activity change, negative = cytotoxicity"
1,COc1cccc(-n2cc(C(=O)OCc3ccc(Cl)cc3)c3ccccc3c2=O)c1,inactive: -2.81%
2,Cc1cccc(CNC(=O)c2ccc(C)c(-n3c(C)nc4cccnc43)c2)c1,inactive: -5.4%
3,CCOc1ccc(-n2c(=O)c3c(C)c(C)sc3n(CC(=O)N3CCC(C)CC3)c2=O)cc1,inactive: 10.5%
4,O=C(NCc1ccccc1Cl)c1ccc(Cn2c(=O)c3cccn3c3cccnc32)cc1,inactive: 1.55%
5,CCn1ccc2cc(S(=O)(=O)N3CCC(C(=O)NCCc4ccccc4)CC3)ccc21,inactive: -0.727%
6,CC(=O)C1=C(c2ccc(Br)cc2)N(C(C)=O)n2c(nnc2C2CCCCC2)S1,inactive: 2.71%
7,COc1cc(OC)c(NC(=O)c2c(C)oc3nc(C)nc(N4CCOCC4)c23)cc1Cl,inactive: 0.257%
8,O=C(c1cccc(Cl)c1)n1nc(-c2cccnc2)nc1NCc1ccccc1,inactive: -1.97%
9,COc1cc(OC)cc(C(=O)Nc2nnc3n2CCS3)c1,inactive: -16%
10,Cc1ccc(C(=O)Nc2nc(-c3nnn(-c4cccc(C(F)(F)F)c4)c3C)ns2)cc1,inactive: -0.132%
11,CSCCC(NS(=O)(=O)c1ccc2c(c1)oc(=O)n2C)C(=O)N1CCN(c2ccc(C(C)=O)cc2)CC1 (stereo unspecified),inactive: 6.49%
12,CCc1ccc(-n2c(=O)c3cccnc3n2CC(=O)Nc2cc(OC)ccc2OC)cc1,inactive: -2.56%
13,O=C(c1ccc(F)cc1)n1nc(-c2cccnc2)nc1NCc1ccc(F)cc1,inactive: 1.67%
14,Cc1nc(-c2ccc(S(=O)(=O)N3CCN(c4cc(Cl)ccc4C)CC3)cc2)co1,inactive: -5.36%
15,O=C(NCCc1ccc(Cl)cc1)C1COc2ccccc2C1 (stereo unspecified),inactive: -5.94%
16,Cc1cn2c(=O)c(S(=O)(=O)N3CCN(c4cc(Cl)ccc4C)CC3)c(C)nc2s1,inactive: -1.42%
17,CCOC(=O)c1noc2ncn(CC(=O)Nc3cccc(Cl)c3)c(=O)c12,inactive: 6.01%
18,O=C(CSc1c2c(nc3cc(Cl)ccc13)CCCC2)N1CCN(c2ccccc2F)CC1,inactive: 1.15%
19,COc1ccccc1NC(=O)CSc1oc(-c2ccccc2)nc1S(=O)(=O)c1ccc(C)cc1,inactive: -2.17%
20,Cc1ccc2nc(-c3cccnc3)c(Nc3ccc(C(C)C)cc3)n2c1,inactive: 3.59%
21,O=C(COc1ccc2ccccc2c1)NC1CC(=O)N(c2ccccc2)C1 (stereo unspecified),inactive: 2.45%
22,Cc1ccc(S(=O)(=O)c2nc(-c3cccs3)oc2SC(C)C)cc1,inactive: -17.9%
23,N#Cc1ccccc1NC(=O)C(=O)NCCc1csc(-c2ccc(F)cc2)n1,inactive: -2.88%
24,O=C(Cn1c(=O)oc2cc(S(=O)(=O)N3CCCC3)ccc21)Nc1ccc(F)cc1F,inactive: -0.459%

row,SMILES,"activity change, negative = cytotoxicity"
1,CCNC(=O)CC1C(=O)N(c2ccc(C)cc2)C(=O)N1CCC(C)C (stereo unspecified),inactive: 0.263%
2,COc1ccc2c(Sc3ccc(Cl)cc3)c(C(=O)N3CCC(C)CC3)[nH]c2c1,inactive: 2.39%
3,O=C(Nc1cccc(-c2nc3cccnc3s2)c1)c1cccc(Br)c1,inactive: 1.09%
4,CCOC(=O)c1ccc(NC(=O)c2cn(-c3ccccc3)nc2-c2ccc(OC)c(OC)c2)cc1,inactive: 20.7%
5,CCOc1ccccc1NC(=O)CSc1ncc(S(=O)(=O)c2ccc(C)c(C)c2)c(N)n1,inactive: 17.2%
6,COc1ccc(CCNC(=O)Cn2cc(S(=O)(=O)Cc3ccccc3Cl)c3ccccc32)cc1OC,inactive: -19.2%
7,O=C(CSc1nnc(-c2ccccc2F)o1)Nc1ccccc1Cl,inactive: -16.9%
8,COc1ccc(-c2cc(OC(=O)c3cccc(Cl)c3)c3c(C)oc(C)c3c(=O)c2)cc1,inactive: 0.353%
9,CCOc1ccc(NC(=O)Cn2nnc(C(=O)NCCc3ccccc3)c2N)cc1,inactive: 23.5%
10,COc1ccc(-c2noc(-c3ccc(NCC4CCCO4)c([N+](=O)[O-])c3)n2)cc1 (stereo unspecified),inactive: 9.49%
11,CCc1nn(CC(=O)Nc2c(C)cccc2C)c(=O)c2cc3sccc3n12,inactive: 1.61%
12,O=C(CSc1nc2c([nH]c3ccccc32)c(=O)n1-c1ccccc1)Nc1ccc(Cl)c(Cl)c1,inactive: -1.73%
13,CSc1ccc(C2c3c(oc4cc(C)cc(C)c4c3=O)C(=O)N2CCO)cc1 (stereo unspecified),inactive: 13%
14,Cc1nc2sc(C(=O)N(C)c3ccccc3)c(NC(=O)c3ccccc3Cl)c2c(C)c1C,inactive: 18%
15,CC[C@@H](C)[C@@H](C(=O)Nc1ccc(C)cc1)N1Cc2ccccc2C1=O,inactive: -11.1%
16,CCCn1c(=O)c2c(nc3n2CCN3c2ccc(C)cc2)n(C)c1=O,inactive: -3%
17,Cc1ccc(CN(C(=O)COc2ccc(Cl)cc2C)C2CCS(=O)(=O)C2)o1 (stereo unspecified),inactive: -6.33%
18,Cc1ccc(OCC(=O)N(Cc2ccco2)Cc2ccco2)cc1C,inactive: -6.9%
19,CC(C)CCNC(=O)CCn1c(=O)c2cccn2c2cccnc21,inactive: 18%
20,COc1cn(CC(=O)Nc2ccccc2)c(CN2CCCCC2)cc1=O,inactive: -0.0849%
21,Cc1oc2ncn(CC(C)C)c(=O)c2c1C(=O)NCCCN1CCC(C)CC1,inactive: 5.58%
22,O=C(COc1ccccc1F)OCc1cc(=O)n2nc(C3CC3)sc2n1,inactive: 9.62%
23,COc1ccc(-c2cc(C(=O)Oc3cccc(C)c3)c3cc(C)ccc3n2)cc1,inactive: 2.91%
24,Cc1ccc(NC(=O)CN2C(=O)CCc3cc(S(=O)(=O)N4CCCCC4)ccc32)cc1C,inactive: -15.6%
